Test results from PMC4749545, “Kindlin-2 cooperates with talin to activate integrins and induces cell spreading by directly binding paxillin” (eLife, 2016).
These are yes or no findings as the source states them, for the method shown. For some of these results: Binding seen in cells or lysates may run through a third protein. Some results given as binding are weak or reduced against the parent protein; the word gives no strength. For some of these results: Where a sequence is shown, tags or fusion partners need not be part of it. Values belong to the molecule of their own block, whether it stands above or below them.

Sequences of proteins named here, by UniProt entry; tags and fusion partners are left off. A change or cut given only in a name is not applied to a line headed by its entry. A line that says so, or that is headed by a name, gives the form on record, which may keep a tag or linker.
UniProt Q8K1B8: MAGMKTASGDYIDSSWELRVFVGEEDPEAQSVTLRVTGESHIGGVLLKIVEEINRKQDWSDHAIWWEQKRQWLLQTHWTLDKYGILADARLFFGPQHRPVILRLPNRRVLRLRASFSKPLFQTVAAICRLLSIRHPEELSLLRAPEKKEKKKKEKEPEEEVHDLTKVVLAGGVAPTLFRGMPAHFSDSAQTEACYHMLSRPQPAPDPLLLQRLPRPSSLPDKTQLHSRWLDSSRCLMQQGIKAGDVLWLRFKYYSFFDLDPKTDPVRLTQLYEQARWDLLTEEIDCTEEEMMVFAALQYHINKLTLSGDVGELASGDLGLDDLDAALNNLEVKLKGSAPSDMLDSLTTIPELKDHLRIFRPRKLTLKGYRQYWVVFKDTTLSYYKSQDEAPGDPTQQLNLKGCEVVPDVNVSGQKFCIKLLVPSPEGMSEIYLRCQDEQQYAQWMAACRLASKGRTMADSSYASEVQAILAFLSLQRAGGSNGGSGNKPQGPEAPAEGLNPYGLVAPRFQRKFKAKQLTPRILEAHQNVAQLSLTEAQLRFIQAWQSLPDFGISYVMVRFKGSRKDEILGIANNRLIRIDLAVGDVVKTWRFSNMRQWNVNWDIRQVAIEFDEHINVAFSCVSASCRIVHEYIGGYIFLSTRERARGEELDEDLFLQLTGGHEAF
UniProt Q8VI36: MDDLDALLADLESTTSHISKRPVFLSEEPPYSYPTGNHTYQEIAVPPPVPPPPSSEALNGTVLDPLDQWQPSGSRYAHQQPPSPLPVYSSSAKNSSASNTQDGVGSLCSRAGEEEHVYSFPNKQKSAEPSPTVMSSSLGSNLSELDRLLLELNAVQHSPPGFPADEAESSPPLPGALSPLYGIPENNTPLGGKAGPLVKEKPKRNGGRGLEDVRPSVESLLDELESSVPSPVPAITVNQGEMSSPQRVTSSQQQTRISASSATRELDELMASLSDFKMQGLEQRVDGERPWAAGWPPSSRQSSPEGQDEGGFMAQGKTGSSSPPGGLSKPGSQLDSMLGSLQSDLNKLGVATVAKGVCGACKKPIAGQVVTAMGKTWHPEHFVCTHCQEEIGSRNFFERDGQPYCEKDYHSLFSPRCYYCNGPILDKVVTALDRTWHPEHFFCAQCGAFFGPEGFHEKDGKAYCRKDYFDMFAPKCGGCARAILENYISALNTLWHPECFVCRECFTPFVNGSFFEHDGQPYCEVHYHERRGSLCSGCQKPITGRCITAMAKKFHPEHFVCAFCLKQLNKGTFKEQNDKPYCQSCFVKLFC
GFP-tagged paxillin (Q8VI36-2, form named): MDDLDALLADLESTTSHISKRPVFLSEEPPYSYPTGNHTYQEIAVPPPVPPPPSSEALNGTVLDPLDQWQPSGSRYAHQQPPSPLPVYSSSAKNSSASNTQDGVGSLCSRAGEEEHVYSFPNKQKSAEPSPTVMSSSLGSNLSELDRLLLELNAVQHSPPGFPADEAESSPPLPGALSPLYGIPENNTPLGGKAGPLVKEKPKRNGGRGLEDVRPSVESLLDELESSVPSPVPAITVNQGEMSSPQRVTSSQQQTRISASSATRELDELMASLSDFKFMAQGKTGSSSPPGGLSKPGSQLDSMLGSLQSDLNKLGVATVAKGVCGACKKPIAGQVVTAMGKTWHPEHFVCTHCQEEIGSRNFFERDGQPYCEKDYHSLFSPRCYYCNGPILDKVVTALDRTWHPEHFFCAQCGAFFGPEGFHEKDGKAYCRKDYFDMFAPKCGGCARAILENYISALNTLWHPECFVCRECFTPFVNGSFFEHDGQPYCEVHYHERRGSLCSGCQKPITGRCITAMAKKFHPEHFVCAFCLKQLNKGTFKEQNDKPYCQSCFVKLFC
UniProt Q62219: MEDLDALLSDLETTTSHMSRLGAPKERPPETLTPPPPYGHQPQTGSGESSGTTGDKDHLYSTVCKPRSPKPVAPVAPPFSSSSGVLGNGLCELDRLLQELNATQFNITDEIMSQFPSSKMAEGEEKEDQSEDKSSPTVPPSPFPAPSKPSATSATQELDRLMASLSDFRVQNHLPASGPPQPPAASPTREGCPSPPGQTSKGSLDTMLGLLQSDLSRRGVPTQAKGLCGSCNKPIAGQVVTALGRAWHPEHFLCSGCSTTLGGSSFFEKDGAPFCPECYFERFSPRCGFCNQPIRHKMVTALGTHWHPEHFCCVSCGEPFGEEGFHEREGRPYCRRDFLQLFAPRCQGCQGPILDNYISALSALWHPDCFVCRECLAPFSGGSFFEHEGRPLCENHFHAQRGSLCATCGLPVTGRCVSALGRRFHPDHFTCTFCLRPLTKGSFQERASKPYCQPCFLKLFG
UniProt P34152: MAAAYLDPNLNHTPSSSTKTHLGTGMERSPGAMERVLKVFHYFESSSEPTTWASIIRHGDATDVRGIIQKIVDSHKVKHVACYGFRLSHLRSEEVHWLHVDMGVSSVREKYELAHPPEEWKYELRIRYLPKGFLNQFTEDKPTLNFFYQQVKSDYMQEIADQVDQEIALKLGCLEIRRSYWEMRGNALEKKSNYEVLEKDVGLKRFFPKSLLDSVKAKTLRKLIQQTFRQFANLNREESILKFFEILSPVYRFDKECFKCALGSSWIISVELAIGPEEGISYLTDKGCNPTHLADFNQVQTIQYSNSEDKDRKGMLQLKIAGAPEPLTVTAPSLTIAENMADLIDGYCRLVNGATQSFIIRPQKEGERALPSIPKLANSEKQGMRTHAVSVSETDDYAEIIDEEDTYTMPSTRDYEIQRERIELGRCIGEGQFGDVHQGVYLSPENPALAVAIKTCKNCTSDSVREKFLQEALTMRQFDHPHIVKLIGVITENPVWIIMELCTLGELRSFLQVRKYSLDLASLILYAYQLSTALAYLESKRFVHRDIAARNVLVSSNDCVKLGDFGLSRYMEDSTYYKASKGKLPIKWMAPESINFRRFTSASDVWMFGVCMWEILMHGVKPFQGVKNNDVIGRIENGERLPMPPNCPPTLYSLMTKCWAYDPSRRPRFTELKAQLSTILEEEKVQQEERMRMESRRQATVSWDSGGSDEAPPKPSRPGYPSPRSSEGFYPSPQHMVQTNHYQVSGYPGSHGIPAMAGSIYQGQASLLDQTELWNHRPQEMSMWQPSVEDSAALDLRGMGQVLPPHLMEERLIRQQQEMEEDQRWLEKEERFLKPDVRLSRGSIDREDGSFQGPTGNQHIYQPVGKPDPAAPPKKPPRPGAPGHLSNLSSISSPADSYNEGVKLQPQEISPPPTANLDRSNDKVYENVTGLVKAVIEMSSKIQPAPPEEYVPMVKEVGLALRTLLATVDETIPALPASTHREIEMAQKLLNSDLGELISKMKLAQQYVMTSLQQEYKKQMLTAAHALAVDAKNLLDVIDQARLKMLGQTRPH
UniProt O43294: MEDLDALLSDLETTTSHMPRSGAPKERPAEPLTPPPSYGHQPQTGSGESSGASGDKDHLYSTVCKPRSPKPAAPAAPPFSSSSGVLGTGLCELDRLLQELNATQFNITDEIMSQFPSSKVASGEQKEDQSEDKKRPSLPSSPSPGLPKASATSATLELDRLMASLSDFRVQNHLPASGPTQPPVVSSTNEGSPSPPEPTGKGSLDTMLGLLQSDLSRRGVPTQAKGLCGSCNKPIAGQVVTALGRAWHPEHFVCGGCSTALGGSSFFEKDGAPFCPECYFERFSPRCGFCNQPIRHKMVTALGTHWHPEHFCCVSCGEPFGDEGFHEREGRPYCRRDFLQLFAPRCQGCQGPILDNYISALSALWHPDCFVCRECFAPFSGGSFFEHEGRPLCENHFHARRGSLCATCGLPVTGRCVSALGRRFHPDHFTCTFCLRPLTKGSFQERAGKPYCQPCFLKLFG

Columns and labels:
[1] = target: green fluorescent protein-tagged kindlin-3 (UniProt Q8K1B8); assay: co-IP; GFP-IP with µ-MACS anti-GFP magnetic beads of lysates of HEK 293T cells overexpressing the GFP-tagged bait and the FLAG- or Cherry-tagged partner; western blot
[2] = target: T1, green fluorescent protein-tagged kindlin-1 (UniProt P59113); assay: as above
T1 sequence: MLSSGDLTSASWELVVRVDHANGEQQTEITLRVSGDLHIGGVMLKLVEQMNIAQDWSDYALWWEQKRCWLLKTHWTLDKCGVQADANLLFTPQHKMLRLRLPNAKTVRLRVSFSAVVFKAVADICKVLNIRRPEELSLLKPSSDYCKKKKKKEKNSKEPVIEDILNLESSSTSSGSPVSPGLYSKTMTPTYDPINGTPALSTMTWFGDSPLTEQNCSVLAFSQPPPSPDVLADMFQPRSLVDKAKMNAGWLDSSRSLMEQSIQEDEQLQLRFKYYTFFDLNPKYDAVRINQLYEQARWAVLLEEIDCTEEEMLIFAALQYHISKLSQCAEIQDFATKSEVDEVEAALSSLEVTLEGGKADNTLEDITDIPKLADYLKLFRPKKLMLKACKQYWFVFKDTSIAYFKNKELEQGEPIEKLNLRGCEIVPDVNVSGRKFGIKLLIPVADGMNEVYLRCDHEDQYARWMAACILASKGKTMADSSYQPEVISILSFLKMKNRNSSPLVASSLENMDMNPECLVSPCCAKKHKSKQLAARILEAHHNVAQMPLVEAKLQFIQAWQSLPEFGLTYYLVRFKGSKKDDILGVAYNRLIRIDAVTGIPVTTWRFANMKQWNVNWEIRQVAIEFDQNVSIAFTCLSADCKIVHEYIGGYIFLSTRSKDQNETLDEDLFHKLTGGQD

[3] = target: T2, green fluorescent protein-tagged kindlin-2 (in HEK293T) (mouse) (UniProt Q8CIB5); assay: as above
T2 sequence: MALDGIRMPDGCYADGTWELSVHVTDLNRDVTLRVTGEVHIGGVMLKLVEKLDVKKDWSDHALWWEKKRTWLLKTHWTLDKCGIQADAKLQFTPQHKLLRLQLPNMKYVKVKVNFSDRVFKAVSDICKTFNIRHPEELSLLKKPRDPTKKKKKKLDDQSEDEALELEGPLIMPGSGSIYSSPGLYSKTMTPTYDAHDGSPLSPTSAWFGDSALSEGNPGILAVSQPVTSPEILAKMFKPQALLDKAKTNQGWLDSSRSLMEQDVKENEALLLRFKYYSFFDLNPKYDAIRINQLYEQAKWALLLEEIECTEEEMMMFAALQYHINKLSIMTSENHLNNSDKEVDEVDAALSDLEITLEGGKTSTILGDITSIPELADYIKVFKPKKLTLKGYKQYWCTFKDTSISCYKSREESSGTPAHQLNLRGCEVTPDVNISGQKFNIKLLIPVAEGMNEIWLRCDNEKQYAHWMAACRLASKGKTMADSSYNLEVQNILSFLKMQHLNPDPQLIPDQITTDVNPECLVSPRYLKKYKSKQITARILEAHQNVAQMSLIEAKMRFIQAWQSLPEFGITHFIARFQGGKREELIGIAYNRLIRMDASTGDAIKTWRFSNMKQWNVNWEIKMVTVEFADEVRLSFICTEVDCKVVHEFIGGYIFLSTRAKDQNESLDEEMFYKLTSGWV

[4] = target: T3, GFP-tagged kindlin-2 lacking the PH domain (in Kind^Ko cells) (mouse) (UniProt Q8CIB5); assay: co-IP; GFP-IP in lysates of K2GFP-, K2ΔPHGFP- or GFP-reconstituted Kind^Ko cells overexpressing FAK-Myc and PxnCH
T3 sequence: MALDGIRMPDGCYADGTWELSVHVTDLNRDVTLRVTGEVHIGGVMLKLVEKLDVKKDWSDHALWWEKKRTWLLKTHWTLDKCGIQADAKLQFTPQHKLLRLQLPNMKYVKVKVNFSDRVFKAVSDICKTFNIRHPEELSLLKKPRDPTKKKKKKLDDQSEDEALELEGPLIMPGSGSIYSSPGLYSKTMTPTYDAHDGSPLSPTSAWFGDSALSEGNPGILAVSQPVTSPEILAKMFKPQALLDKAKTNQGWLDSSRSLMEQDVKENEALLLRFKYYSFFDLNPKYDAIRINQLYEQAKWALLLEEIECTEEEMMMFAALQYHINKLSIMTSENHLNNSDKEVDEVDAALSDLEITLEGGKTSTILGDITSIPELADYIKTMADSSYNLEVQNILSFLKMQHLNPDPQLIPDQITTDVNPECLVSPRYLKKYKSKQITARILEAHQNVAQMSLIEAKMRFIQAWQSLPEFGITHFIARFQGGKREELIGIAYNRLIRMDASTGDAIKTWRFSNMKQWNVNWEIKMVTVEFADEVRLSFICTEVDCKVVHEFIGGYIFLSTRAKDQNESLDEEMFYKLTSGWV

[5] = target: T4, green fluorescent protein-tagged kindlin-2 (in Kind^Ko cells) (mouse) (UniProt Q8CIB5); assay: as above
T4 sequence: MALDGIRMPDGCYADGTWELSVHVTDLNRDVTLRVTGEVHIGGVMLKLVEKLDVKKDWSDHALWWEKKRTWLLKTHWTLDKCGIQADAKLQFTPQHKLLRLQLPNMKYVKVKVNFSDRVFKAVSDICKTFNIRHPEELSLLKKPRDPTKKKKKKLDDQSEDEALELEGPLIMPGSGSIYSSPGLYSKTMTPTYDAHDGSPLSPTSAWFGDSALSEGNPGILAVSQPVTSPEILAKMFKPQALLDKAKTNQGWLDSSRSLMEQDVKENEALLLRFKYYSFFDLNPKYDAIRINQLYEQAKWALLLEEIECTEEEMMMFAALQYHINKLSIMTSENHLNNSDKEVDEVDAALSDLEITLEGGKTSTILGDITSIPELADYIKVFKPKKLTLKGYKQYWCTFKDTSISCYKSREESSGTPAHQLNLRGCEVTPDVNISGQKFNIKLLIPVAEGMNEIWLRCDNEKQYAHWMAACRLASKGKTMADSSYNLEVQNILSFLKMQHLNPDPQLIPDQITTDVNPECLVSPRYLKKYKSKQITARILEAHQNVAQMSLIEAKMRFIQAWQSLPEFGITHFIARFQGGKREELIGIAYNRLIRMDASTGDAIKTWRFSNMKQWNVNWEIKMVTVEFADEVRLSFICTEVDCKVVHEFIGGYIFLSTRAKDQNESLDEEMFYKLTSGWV

[6] = target: T5, kindlin-2 N-terminally fused with the Gal4-DNA binding domain (mouse) (UniProt Q8CIB5); assay: two-hybrid; kindlin-2 fused to the Gal4 DNA-binding domain (pGBKT7) as bait, screened against a human full ORF cDNA library and a human keratinocyte-derived cDNA library
T5 sequence: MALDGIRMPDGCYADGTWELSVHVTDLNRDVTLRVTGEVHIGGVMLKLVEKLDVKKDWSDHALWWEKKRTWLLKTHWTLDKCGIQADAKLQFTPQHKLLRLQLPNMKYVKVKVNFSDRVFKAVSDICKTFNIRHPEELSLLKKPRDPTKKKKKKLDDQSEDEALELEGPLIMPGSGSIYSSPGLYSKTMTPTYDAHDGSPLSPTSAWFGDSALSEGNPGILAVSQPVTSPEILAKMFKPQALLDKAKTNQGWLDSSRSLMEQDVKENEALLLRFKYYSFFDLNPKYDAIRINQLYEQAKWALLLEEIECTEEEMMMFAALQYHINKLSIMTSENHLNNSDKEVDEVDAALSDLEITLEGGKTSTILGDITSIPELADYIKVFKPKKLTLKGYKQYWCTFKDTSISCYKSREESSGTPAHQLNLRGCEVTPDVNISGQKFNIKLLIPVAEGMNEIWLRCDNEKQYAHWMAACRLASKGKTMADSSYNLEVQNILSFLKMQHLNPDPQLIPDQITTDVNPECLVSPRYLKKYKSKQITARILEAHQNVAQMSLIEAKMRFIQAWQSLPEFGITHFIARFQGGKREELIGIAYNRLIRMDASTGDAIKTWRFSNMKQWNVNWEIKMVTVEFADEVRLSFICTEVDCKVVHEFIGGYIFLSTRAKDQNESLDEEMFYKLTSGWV

[7] = target: paxillin (endogenous, Kind^Ctr fibroblasts) (mouse (endogenous in Kind^Ctr fibroblasts)) (UniProt Q8VI36); assay: co-IP; Kind^Ctr fibroblasts lysed in 50 mM Tris pH 8.0, 150 mM NaCl, 1% Triton X-100, 0.05% sodium deoxycholate, 10 mM EDTA; paxillin antibody 2 hr at 4°C, protein A/G Plus Agarose; isotype-matched IgG as control; western blot
GFP-tagged Hic-5 (mouse) = GFP-tagged Hic-5 (mouse) (UniProt Q62219); assay: co-IP; GFP-IP with µ-MACS anti-GFP magnetic beads of lysates of HEK 293T cells overexpressing the GFP-tagged bait and the FLAG- or Cherry-tagged partner; western blot
GFP-tagged paxillin = GFP-tagged paxillin (UniProt Q8VI36); assay: as above
[8] = target: T6, GFP-tagged leupaxin (mouse) (UniProt Q99N69); assay: as above
T6 sequence: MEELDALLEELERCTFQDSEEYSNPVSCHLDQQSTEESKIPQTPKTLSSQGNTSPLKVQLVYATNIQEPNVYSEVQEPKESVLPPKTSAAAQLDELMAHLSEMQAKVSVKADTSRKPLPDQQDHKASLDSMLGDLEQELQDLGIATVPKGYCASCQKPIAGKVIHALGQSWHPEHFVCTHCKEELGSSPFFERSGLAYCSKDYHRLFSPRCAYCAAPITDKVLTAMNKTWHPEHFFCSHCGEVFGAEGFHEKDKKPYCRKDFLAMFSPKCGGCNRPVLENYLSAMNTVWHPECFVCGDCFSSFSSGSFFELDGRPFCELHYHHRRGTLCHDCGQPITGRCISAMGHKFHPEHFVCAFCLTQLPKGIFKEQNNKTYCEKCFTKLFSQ

Molecule: Cherry-tagged paxillin (from UniProt Q8VI36-2 1-557)
binding [1]: binds
binding [2]: binds
binding [3]: binds

Molecule: Cherry-tagged paxillin (in Kind^Ko cells) (from UniProt Q8VI36-2 1-557)
binding [4]: no binding
binding [5]: binds

Molecule: Myc-tagged FAK (from UniProt P34152 1-1052) (enzyme)
binding [4]: no binding
binding [5]: binds

B2: FLAG-tagged kindlin-2 (protein, UniProt Q8CIB5 1-680)
chain: MALDGIRMPDGCYADGTWELSVHVTDLNRDVTLRVTGEVHIGGVMLKLVEKLDVKKDWSDHALWWEKKRTWLLKTHWTLDKCGIQADAKLQFTPQHKLLRLQLPNMKYVKVKVNFSDRVFKAVSDICKTFNIRHPEELSLLKKPRDPTKKKKKKLDDQSEDEALELEGPLIMPGSGSIYSSPGLYSKTMTPTYDAHDGSPLSPTSAWFGDSALSEGNPGILAVSQPVTSPEILAKMFKPQALLDKAKTNQGWLDSSRSLMEQDVKENEALLLRFKYYSFFDLNPKYDAIRINQLYEQAKWALLLEEIECTEEEMMMFAALQYHINKLSIMTSENHLNNSDKEVDEVDAALSDLEITLEGGKTSTILGDITSIPELADYIKVFKPKKLTLKGYKQYWCTFKDTSISCYKSREESSGTPAHQLNLRGCEVTPDVNISGQKFNIKLLIPVAEGMNEIWLRCDNEKQYAHWMAACRLASKGKTMADSSYNLEVQNILSFLKMQHLNPDPQLIPDQITTDVNPECLVSPRYLKKYKSKQITARILEAHQNVAQMSLIEAKMRFIQAWQSLPEFGITHFIARFQGGKREELIGIAYNRLIRMDASTGDAIKTWRFSNMKQWNVNWEIKMVTVEFADEVRLSFICTEVDCKVVHEFIGGYIFLSTRAKDQNESLDEEMFYKLTSGWV
binding (GFP-tagged Hic-5 (mouse)): binds
binding (GFP-tagged paxillin): binds
binding [8]: binds

Further lines, results first:

binding [6]: binds
Molecule: Hic-5 (human cDNA library clone) (from UniProt O43294 1-461)

binding [7]: binds
B1: kindlin-2 (endogenous, Kind^Ctr fibroblasts) (protein, UniProt Q8CIB5 1-680)
chain: MALDGIRMPDGCYADGTWELSVHVTDLNRDVTLRVTGEVHIGGVMLKLVEKLDVKKDWSDHALWWEKKRTWLLKTHWTLDKCGIQADAKLQFTPQHKLLRLQLPNMKYVKVKVNFSDRVFKAVSDICKTFNIRHPEELSLLKKPRDPTKKKKKKLDDQSEDEALELEGPLIMPGSGSIYSSPGLYSKTMTPTYDAHDGSPLSPTSAWFGDSALSEGNPGILAVSQPVTSPEILAKMFKPQALLDKAKTNQGWLDSSRSLMEQDVKENEALLLRFKYYSFFDLNPKYDAIRINQLYEQAKWALLLEEIECTEEEMMMFAALQYHINKLSIMTSENHLNNSDKEVDEVDAALSDLEITLEGGKTSTILGDITSIPELADYIKVFKPKKLTLKGYKQYWCTFKDTSISCYKSREESSGTPAHQLNLRGCEVTPDVNISGQKFNIKLLIPVAEGMNEIWLRCDNEKQYAHWMAACRLASKGKTMADSSYNLEVQNILSFLKMQHLNPDPQLIPDQITTDVNPECLVSPRYLKKYKSKQITARILEAHQNVAQMSLIEAKMRFIQAWQSLPEFGITHFIARFQGGKREELIGIAYNRLIRMDASTGDAIKTWRFSNMKQWNVNWEIKMVTVEFADEVRLSFICTEVDCKVVHEFIGGYIFLSTRAKDQNESLDEEMFYKLTSGWV

binding [6]: binds
B3: leupaxin (human cDNA library clone) (protein, UniProt O60711 1-386)
chain: MEELDALLEELERSTLQDSDEYSNPAPLPLDQHSRKETNLDETSEILSIQDNTSPLPAQLVYTTNIQELNVYSEAQEPKESPPPSKTSAAAQLDELMAHLTEMQAKVAVRADAGKKHLPDKQDHKASLDSMLGGLEQELQDLGIATVPKGHCASCQKPIAGKVIHALGQSWHPEHFVCTHCKEEIGSSPFFERSGLAYCPNDYHQLFSPRCAYCAAPILDKVLTAMNQTWHPEHFFCSHCGEVFGAEGFHEKDKKPYCRKDFLAMFSPKCGGCNRPVLENYLSAMDTVWHPECFVCGDCFTSFSTGSFFELDGRPFCELHYHHRRGTLCHGCGQPITGRCISAMGYKFHPEHFVCAFCLTQLSKGIFREQNDKTYCQPCFNKLFPL
